About 2,200 (0.71%) of roughly 310,000 compounds showed an effect of 50% or more. Effects have a minus sign here. The list shows a part of the results.
The compounds below were run against human ether-à-go-go-related gene (hERG) potassium channel (human, UniProt Q12809) (assay: primary screen, population patch clamp on CHO cells stably expressing hERG).
Chain of human ether-à-go-go-related gene (hERG) potassium channel (Q12809 whole entry, looked up): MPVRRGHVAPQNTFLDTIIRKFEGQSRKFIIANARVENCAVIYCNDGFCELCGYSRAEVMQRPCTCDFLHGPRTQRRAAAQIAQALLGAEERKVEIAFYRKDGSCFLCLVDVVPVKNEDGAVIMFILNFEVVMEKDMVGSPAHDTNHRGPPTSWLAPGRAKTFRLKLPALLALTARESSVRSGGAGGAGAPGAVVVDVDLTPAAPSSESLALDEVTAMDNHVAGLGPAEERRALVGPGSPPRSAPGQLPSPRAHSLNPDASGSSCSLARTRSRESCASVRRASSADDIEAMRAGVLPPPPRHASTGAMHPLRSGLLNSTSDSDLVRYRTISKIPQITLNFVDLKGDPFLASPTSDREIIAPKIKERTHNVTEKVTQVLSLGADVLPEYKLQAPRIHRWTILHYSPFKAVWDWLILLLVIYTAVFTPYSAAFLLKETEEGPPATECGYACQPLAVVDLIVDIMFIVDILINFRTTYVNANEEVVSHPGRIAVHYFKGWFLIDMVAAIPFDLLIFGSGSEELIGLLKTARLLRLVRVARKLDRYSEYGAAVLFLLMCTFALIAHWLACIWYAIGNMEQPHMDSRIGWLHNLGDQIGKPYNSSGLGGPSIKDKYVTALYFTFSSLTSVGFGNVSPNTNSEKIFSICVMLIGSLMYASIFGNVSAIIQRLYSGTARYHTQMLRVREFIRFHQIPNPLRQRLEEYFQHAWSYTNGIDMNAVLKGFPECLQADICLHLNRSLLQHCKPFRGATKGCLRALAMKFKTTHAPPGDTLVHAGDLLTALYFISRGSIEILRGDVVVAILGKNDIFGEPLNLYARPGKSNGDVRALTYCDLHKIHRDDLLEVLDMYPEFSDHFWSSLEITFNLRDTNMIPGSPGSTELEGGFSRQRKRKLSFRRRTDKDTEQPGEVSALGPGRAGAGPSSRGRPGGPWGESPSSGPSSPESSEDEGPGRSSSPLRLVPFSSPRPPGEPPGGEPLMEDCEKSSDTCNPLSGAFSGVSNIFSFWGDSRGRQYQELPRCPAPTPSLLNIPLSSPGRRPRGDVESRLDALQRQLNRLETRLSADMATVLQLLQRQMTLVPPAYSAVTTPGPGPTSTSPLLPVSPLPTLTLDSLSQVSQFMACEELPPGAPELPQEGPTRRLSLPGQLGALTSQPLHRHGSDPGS

SMILES	hERG current change (%, negative = inhibition) at 1uM
CC(OC(=O)CCCN=C1NS(=O)(=O)c2ccccc21)C(=O)Nc1ccccc1F (centres unmarked)	-4.77%
Cn1nccc1C(=O)NC(=S)Nc1cc(Cl)cc(Cl)c1	11%
O=C(Nc1ccc(F)cc1F)NC1CCCc2ccccc21 (centres unmarked)	2%
Cc1ccc2nc(NC(=O)C(NS(=O)(=O)c3cccc4nsnc34)C(C)C)sc2c1 (centres unmarked)	3.14%
Cc1c(Cc2ccccc2)c(=O)oc2c(C)c(OC(C)C(=O)N[C@@H](Cc3ccccc3)C(=O)O)ccc12 (some centres unmarked)	8.39%
N#Cc1c(N2CCOCC2)nsc1-c1ccccc1	14%
CC(C)(C)c1ccc(/C=N/Nc2nncn2N)cc1	-7.77%
C[C@H](O)CC1=C[C@H](O)[C@@H](C)OC1=O	-14.7%
COc1cccc(NC(=O)C(c2ccccc2)N2CCN(CC(=O)N3CCOCC3)CC2)c1 (centres unmarked)	-14.6%
COc1cc(OC)cc(C(=O)Nc2ccc(C(=O)NCC3CCCO3)cc2)c1 (centres unmarked)	9.71%
CC1Cc2ccccc2N1C(=O)C1CCN(S(=O)(=O)Cc2ccccc2)CC1 (centres unmarked)	5.09%
CC(C(=O)NC1=NCCS1)N1C(=O)c2ccccc2C1=O (centres unmarked)	4.77%
NC(=O)C1(N2CCCCC2)CCN(S(=O)(=O)c2ccccc2)CC1	0.32%
N#Cc1ccccc1Cn1cc(C(=O)c2cccs2)c2ccccc21	8.98%
CCSc1nnc(-c2cccnc2)n1Cc1ccco1	-2.58%
O=S(=O)(NC1c2cccc3cccc(c23)C1Sc1ncccn1)c1ccccc1 (centres unmarked)	31.5%
O=C(c1ccc(S(=O)(=O)N2CCCC2)cc1)N1CCCCCC1	14.7%
O=C(CN1C(=O)c2ccccc2S1(=O)=O)Nc1ccc(S(=O)(=O)N2CCCCC2)cc1	13.4%
COc1cccc(-c2cc(CC3(O)CCN(CCCc4ccccc4)CC3)on2)c1	-39.3%
O=C(COC(=O)Cc1n[nH]c(=O)c2ccccc12)NNC(=O)c1ccccc1	1.68%
CC(=O)/C(=N/Nc1ccc(C)cc1)Sc1nnc(CCc2ccccc2)n1-c1ccccc1	3.45%
CCc1cc2c(C)ccc(C)c2nc1SCC(=O)Nc1cc(C)on1	8.37%
COc1ccc(NC(=O)C2CCN(C(=O)Nc3ccccc3)CC2)cc1S(=O)(=O)N(C)C	9.54%

SMILES	hERG current change (%, negative = inhibition) at 1uM
O=C(NCCNC(=O)c1ccccn1)c1ccccc1	13.4%
COc1cc(NC(=O)Cc2c(C(=O)O)[nH]c3ccccc23)cc(OC)c1OC	0.394%
O=S(=O)(Nc1nnc(C2CCCCC2)s1)c1ccc(F)cc1	-8.42%
CN(C)C(=S)Nc1ccc(Br)cc1Cl	7.39%
C#CCOCCOCCOCCNc1nc(N2CCN(C(=O)[C@H]([C@@H](C)CC)n3cc([C@@H](N)CC(C)C)nn3)CC2)nc(N2CCN(C(=O)[C@H](CCCCN)n3cc([C@@H](N)CO)nn3)CC2)n1.Cl	12.8%
Cc1ccc(-c2c[n+](CC(=O)Nc3ccccc3C)c3n2CCC3)cc1.[Cl-]	6.96%
O=C(Nc1ccc(Cl)cc1C(=O)c1ccccc1)c1ccccc1	3.74%
COc1ccc(-c2nnc(N3CCCCC3)c3ccccc23)cc1	-7.58%
COc1cc(Cl)cc(C=O)c1OCC(=O)O	16%
O=C(Nc1nccs1)c1cccc(N2C(=O)c3cccc4c([N+](=O)[O-])ccc(c34)C2=O)c1	0.914%
CC1=NNC(=O)C1CC(=O)N/N=C/C(C)=C/c1ccccc1 (centres unmarked)	11.3%
CCN(C(=O)c1cc2cc(OC)ccc2oc1=O)c1ccccc1	15%
C[C@]1(C(=O)NCCN2CCOCC2)C=C[C@@H](Cc2ccccc2)N1C(=O)c1ccccc1	3.41%
COc1ccc2c(c1)OC13CCN(C)CC1C2C(C(=O)c1ccc(F)cc1)C(=O)N3 (centres unmarked)	-4.16%
Nc1ccc2oc(=O)c(-c3ccccc3)cc2c1	9.3%
COc1ccc(CN2CCCC(C(=O)Nc3cccc(-n4cnnn4)c3)C2)c(C)c1C (centres unmarked)	2.01%
COc1cc(OC)c(C(=O)N2CCN(c3ccccn3)CC2)cc1OC	18.9%
CCCC(c1nnnn1Cc1ccco1)N1CCN(C2CCCC2)CC1 (centres unmarked)	-2.86%
O=Cc1ccc(C(=O)O)cc1	13.6%
Cc1cccc2cc(CN(Cc3ccccc3)C(=S)NCCCN(C)C)c(=O)[nH]c12	-2.04%
COc1cccc(-n2c(SCC(=O)OC(C)C)nnc2-c2cccnc2)c1	10.4%
COc1cccc(S(=O)(=O)Nc2ccc(C(=O)Nc3ccncc3)cc2)c1	6.68%
CCC1(C)Cc2c(sc3nc(SC)[nH]c(=S)c23)CO1 (centres unmarked)	5.68%

SMILES	hERG current change (%, negative = inhibition) at 1uM
CCc1nnc(NC(=O)c2ccc(COc3ccccc3)o2)s1	3.21%
CCC(C)OC(=O)C1=C(C)OC23OC(N)=C(C#N)C12C(=O)c1ccccc13 (centres unmarked)	6.17%
COc1ccc(/C=N/OCC(=O)N2CCCC2)c(OC)c1	9.13%
CCN(CC)C(=O)Oc1cc(=O)n(C)c2ccccc12	6.19%
O=C(CSc1nnc2ccccn12)NNC(=O)c1ccc([N+](=O)[O-])cc1	5.86%
Cc1onc(-c2c(Cl)cccc2Cl)c1C(=O)N=C(N)N1CC(C)OC(C)C1 (centres unmarked)	5.85%
COc1cc(NC(=O)C2CCN(c3cnccn3)CC2)cc(OC)c1OC	12.8%
O=C(O)CCc1ccc(-c2ccc(Cl)cc2)o1	1.26%
CCOc1ccc(S(=O)(=O)N2CCC(C(=O)OCc3cccc(OC)c3OC)CC2)cc1	1.27%
CCS(=O)(=O)N1CCC(C(=O)c2ccc(Cl)cc2)CC1	-9.14%
COCCn1c(SCC(=O)Nc2cc(C)on2)nnc1-c1ccccc1	13.9%
O=S(=O)(Nc1ccccc1N1CCCCC1)c1cccs1	9.36%
CCOc1cc(C2NC(=O)NC(O)(C(F)(F)F)C2C(=O)c2ccc(Cl)cc2)ccc1O (centres unmarked)	11.7%
Cc1sc2nc(C3CC3)nc(N3CCN(C(=O)c4ccc(Cl)cc4)CC3)c2c1C.Cl	-9.15%
C=CCNC(=O)COC(=O)COc1ccc(Cl)cc1	7.74%
Cc1ccc(NC(=O)CN(C)CC(=O)Nc2ccccc2C#N)cc1	9.73%
Cc1c(/C=C/C(=O)c2ccc(O)cc2)cnn1C	-0.752%
COc1ccc(CCNC(=O)/C=C/c2ccco2)cc1	2.84%
O=C(NC1CCSc2ccccc21)c1ccccc1Cl (centres unmarked)	4.67%
C=CCn1c(SCC(C)=O)nnc1-c1cc(-c2ccccc2)sc1N	1.84%
CCOC(=O)N1CCN(CCC(=O)Nc2ccc(C)cc2)CC1	5.62%
CN(C)c1ccc(CN(C(=O)c2ccco2)C2CCS(=O)(=O)C2)cc1 (centres unmarked)	1.89%
Cn1nc(C(=O)N2CCCc3ccccc32)c2ccccc2c1=O	11.3%

SMILES	hERG current change (%, negative = inhibition) at 1uM
COc1ccc(NC(=O)C2CCCN(c3c4c(nc5ncnn35)CCC4)C2)cc1 (centres unmarked)	-7.7%
COc1ccc(-n2cccc2/C=C/[N+](=O)[O-])cc1	0.13%
COc1cccc2c(O)c(-c3ccccc3)c(=O)[nH]c12	15.7%
Cc1c(C#N)c2ncn(CCCN(C)C)c(=O)c2n1-c1ccccc1	8.56%
CCc1nnc(NS(=O)(=O)c2ccccc2)s1	8.61%
COc1ccccc1N1CCN(CC(=O)c2c(C)[nH]c3ccccc23)CC1	-2.2%
Cc1ccc(S(=O)(=O)N(C)C)cc1NC(=O)Nc1c(-c2ccccc2)noc1C	11.9%
COc1cccc(CNC(=O)CCNC(=O)c2ccco2)c1	12.5%
CCn1c(C2CCN(Cc3ccccc3)CC2)n[nH]c1=S	3.03%
Cc1cc(NC2CCCC2)n2ncc(-c3ccccc3)c2n1	3.69%
COCCN(C(=S)Nc1ccccc1C)C(C)c1ccco1 (centres unmarked)	15.6%
Cc1ccc(C(=O)OCc2nnc(-c3ccc(Br)cc3)o2)cc1	4.7%
O=C(NCc1ccc(F)cc1)c1ccccc1OCc1ccccc1	-3.3%
O=C(Nc1nnc(S(=O)(=O)N2CCCCC2)s1)c1ccc(Cl)cc1	12%
COc1ccc(N=Cc2c(OC)ccc3ccccc23)cc1	9.43%
COc1cccc(CCC(=O)Nc2cccc(S(=O)(=O)N3CCCC3)c2)c1OC	-3.91%
Cc1cc(NC(=O)CSc2nnc(-c3ccccc3)o2)no1	7.31%
CCC(=O)N1c2ccc(S(=O)(=O)CCC(=O)NCc3cccs3)cc2CC1C (centres unmarked)	14.7%
CC(=O)Nc1ccc(N2C(=O)C3C4CC(=O)C(c5ccccc54)C3C2=O)cc1 (centres unmarked)	11%
CCOC(=O)C1CCCCN1Cc1cccc(C(F)(F)F)c1 (centres unmarked)	9.49%
